Some of the results follow.
How the values were obtained:
Assay in all cases: glycan array binding signal (z-score within array); higher = stronger binding
Conditions in all cases: glycan notation: IUPAC condensed, linker removed
[1] = target: Gal(b1-4)GlcNAc(b1-3)Gal(b1-4)GlcNAc(b1-2)[Gal(b1-4)GlcNAc(b1-3)Gal(b1-4)GlcNAc(b1-6)]Man(a1-6)[Gal(b1-4)GlcNAc(b1-3)Gal(b1-4)GlcNAc(b1-2)Man(a1-3)]Man(b1-4)GlcNAc(b1-4)GlcNAc
Outline: (§1)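 Glycan array binding is given as a within-array Z-score, which can be read as non-binding when negative. The arrays, 3228 of them, came from the Consortium for Functional Glycomics database and were retained only where the protein sequence was available. Z-scores were averaged across arrays of the same protein sequence at different concentrations or buffers and across linkers.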

[2] = target: Gal(b1-4)GlcNAc(b1-3)Gal(b1-4)GlcNAc(b1-2)[Gal(b1-4)GlcNAc(b1-3)Gal(b1-4)GlcNAc(b1-6)]Man(a1-6)[Gal(b1-4)GlcNAc(b1-3)Gal(b1-4)GlcNAc(b1-2)Man(a1-3)]Man(b1-4)GlcNAc(b1-4)[Fuc(a1-6)]GlcNAc
Outline: as §1

[3] = target: Gal(b1-4)GlcNAc(b1-3)Gal(b1-4)GlcNAc(b1-3)Gal(b1-4)GlcNAc
Outline: as §1

[4] = target: Gal(b1-4)GlcNAc(b1-3)Gal(b1-4)GlcNAc(b1-3)Gal(b1-4)GlcNAc(b1-2)Man(a1-3)[Gal(b1-4)GlcNAc(b1-3)Gal(b1-4)GlcNAc(b1-3)Gal(b1-4)GlcNAc(b1-2)Man(a1-6)]Man(b1-4)GlcNAc(b1-4)GlcNAc
Outline: as §1

[5] = target: Gal(b1-4)GlcNAc(b1-3)Gal(b1-4)GlcNAc(b1-3)Gal(b1-4)GlcNAc(b1-2)Man(a1-3)[Gal(b1-4)GlcNAc(b1-3)Gal(b1-4)GlcNAc(b1-3)Gal(b1-4)GlcNAc(b1-2)Man(a1-6)]Man(b1-4)GlcNAc(b1-4)[Fuc(a1-6)]GlcNAc
Outline: as §1

[6] = target: Gal(b1-4)GlcNAc(b1-3)Gal(b1-4)GlcNAc(b1-3)Gal(b1-4)GlcNAc(b1-2)[Gal(b1-4)GlcNAc(b1-3)Gal(b1-4)GlcNAc(b1-3)Gal(b1-4)GlcNAc(b1-6)]Man(a1-6)[Gal(b1-4)GlcNAc(b1-3)Gal(b1-4)GlcNAc(b1-3)Gal(b1-4)GlcNAc(b1-2)Man(a1-3)]Man(b1-4)GlcNAc(b1-4)[Fuc(a1-6)]GlcNAc
Outline: as §1

[7] = target: Gal(b1-4)GlcNAc(b1-3)Gal(b1-4)GlcNAc(b1-3)Gal(b1-4)GlcNAc(b1-3)Gal(b1-4)GlcNAc(b1-2)Man(a1-3)[Gal(b1-4)GlcNAc(b1-3)Gal(b1-4)GlcNAc(b1-3)Gal(b1-4)GlcNAc(b1-3)Gal(b1-4)GlcNAc(b1-2)Man(a1-6)]Man(b1-4)GlcNAc(b1-4)GlcNAc
Outline: as §1

[8] = target: Gal(b1-4)GlcNAc(b1-3)Gal(b1-4)GlcNAc(b1-3)Gal(b1-4)GlcNAc(b1-3)Gal(b1-4)GlcNAc(b1-2)Man(a1-3)[Gal(b1-4)GlcNAc(b1-3)Gal(b1-4)GlcNAc(b1-3)Gal(b1-4)GlcNAc(b1-3)Gal(b1-4)GlcNAc(b1-2)Man(a1-6)]Man(b1-4)GlcNAc(b1-4)[Fuc(a1-6)]GlcNAc
Outline: as §1

[9] = target: Gal(b1-4)GlcNAc(b1-3)Gal(b1-4)GlcNAc(b1-3)Gal(b1-4)GlcNAc(b1-3)Gal(b1-4)GlcNAc(b1-2)[Gal(b1-4)GlcNAc(b1-3)Gal(b1-4)GlcNAc(b1-3)Gal(b1-4)GlcNAc(b1-3)Gal(b1-4)GlcNAc(b1-6)]Man(a1-6)[Gal(b1-4)GlcNAc(b1-3)Gal(b1-4)GlcNAc(b1-3)Gal(b1-4)GlcNAc(b1-3)Gal(b1-4)GlcNAc(b1-2)Man(a1-3)]Man(b1-4)GlcNAc(b1-4)[Fuc(a1-6)]GlcNAc
Outline: as §1

[10] = target: Gal(b1-4)GlcNAc(b1-3)Gal(b1-4)GlcNAc(b1-3)Gal(b1-4)GlcNAc(b1-3)Gal(b1-4)GlcNAc(b1-3)Gal(b1-4)GlcNAc(b1-2)Man(a1-3)[Gal(b1-4)GlcNAc(b1-3)Gal(b1-4)GlcNAc(b1-3)Gal(b1-4)GlcNAc(b1-3)Gal(b1-4)GlcNAc(b1-3)Gal(b1-4)GlcNAc(b1-2)Man(a1-6)]Man(b1-4)GlcNAc(b1-4)GlcNAc
Outline: as §1

[11] = target: Gal(b1-4)GlcNAc(b1-3)Gal(b1-4)GlcNAc(b1-3)Gal(b1-4)GlcNAc(b1-3)Gal(b1-4)GlcNAc(b1-3)Gal(b1-4)GlcNAc(b1-2)Man(a1-3)[Gal(b1-4)GlcNAc(b1-3)Gal(b1-4)GlcNAc(b1-3)Gal(b1-4)GlcNAc(b1-3)Gal(b1-4)GlcNAc(b1-3)Gal(b1-4)GlcNAc(b1-2)Man(a1-6)]Man(b1-4)GlcNAc(b1-4)[Fuc(a1-6)]GlcNAc
Outline: as §1

[12] = target: Gal(b1-4)GlcNAc(b1-3)Gal(b1-4)GlcNAc(b1-3)Gal(b1-4)GlcNAc(b1-3)Gal(b1-4)GlcNAc(b1-3)Gal(b1-4)GlcNAc(b1-2)[Gal(b1-4)GlcNAc(b1-3)Gal(b1-4)GlcNAc(b1-3)Gal(b1-4)GlcNAc(b1-3)Gal(b1-4)GlcNAc(b1-3)Gal(b1-4)GlcNAc(b1-6)]Man(a1-6)[Gal(b1-4)GlcNAc(b1-3)Gal(b1-4)GlcNAc(b1-3)Gal(b1-4)GlcNAc(b1-3)Gal(b1-4)GlcNAc(b1-3)Gal(b1-4)GlcNAc(b1-2)Man(a1-3)]Man(b1-4)GlcNAc(b1-4)[Fuc(a1-6)]GlcNAc
Outline: as §1

[13] = target: Gal(b1-4)GlcNAc(b1-3)Gal(b1-4)GlcNAc(b1-3)Gal(b1-4)GlcNAc(b1-3)Gal(b1-4)GlcNAc(b1-3)Gal(b1-4)GlcNAc(b1-3)Gal(b1-4)GlcNAc(b1-2)Man(a1-3)[Gal(b1-4)GlcNAc(b1-3)Gal(b1-4)GlcNAc(b1-3)Gal(b1-4)GlcNAc(b1-3)Gal(b1-4)GlcNAc(b1-3)Gal(b1-4)GlcNAc(b1-3)Gal(b1-4)GlcNAc(b1-2)Man(a1-6)]Man(b1-4)GlcNAc(b1-4)GlcNAc
Outline: as §1

[14] = target: Gal(b1-4)GlcNAc(b1-3)Gal(b1-4)GlcNAc(b1-3)GalNAc
Outline: as §1

[15] = target: Gal(b1-4)GlcNAc(b1-3)Gal(b1-4)GlcNAc(b1-3)[Gal(b1-4)GlcNAc(b1-3)Gal(b1-4)GlcNAc(b1-6)]GalNAc
Outline: as §1

[16] = target: Gal(b1-4)GlcNAc(b1-3)Gal(b1-4)GlcNAc(b1-6)[Gal(b1-3)]GalNAc
Outline: as §1

[17] = target: Gal(b1-4)GlcNAc(b1-3)Gal(b1-4)[Fuc(a1-3)]GlcNAc(b1-3)Gal(b1-4)[Fuc(a1-3)]GlcNAc
Outline: as §1

[18] = target: Gal(b1-4)GlcNAc(b1-3)GalNAc
Outline: as §1

[19] = target: Gal(b1-4)GlcNAc(b1-3)[Fuc(a1-3)GlcNAc(b1-6)]Gal(b1-4)Glc
Outline: as §1

[20] = target: Gal(b1-4)GlcNAc(b1-3)[Gal(b1-4)GlcNAc(b1-6)]Gal(b1-4)GlcNAc
Outline: as §1

[21] = target: Gal(b1-4)GlcNAc(b1-3)[GlcNAc(b1-6)]Gal(b1-4)GlcNAc
Outline: as §1

[22] = target: Gal(b1-4)GlcNAc(b1-6)Gal(b1-4)GlcNAc
Outline: as §1

[23] = target: Gal(b1-4)GlcNAc(b1-6)GalNAc
Outline: as §1

[24] = target: Gal(b1-4)GlcNAc(b1-6)[Gal(b1-3)]GalNAc
Outline: as §1

[25] = target: Gal(b1-4)GlcNAc(b1-6)[Gal(b1-4)GlcNAc(b1-3)]GalNAc
Outline: as §1

Gal(b1-4)GlcNAc6P = target: Gal(b1-4)GlcNAc6P
Outline: as §1

Gal(b1-6)Gal = target: Gal(b1-6)Gal
Outline: as §1

Gal3S(b1-3)GalNAc = target: Gal3S(b1-3)GalNAc
Outline: as §1

Gal3S(b1-3)GlcNAc = target: Gal3S(b1-3)GlcNAc
Outline: as §1

[26] = target: Gal3S(b1-3)[Fuc(a1-4)]GlcNAc
Outline: as §1

Gal3S(b1-4)Glc = target: Gal3S(b1-4)Glc
Outline: as §1

Gal3S(b1-4)Glc6S = target: Gal3S(b1-4)Glc6S
Outline: as §1

Gal3S(b1-4)GlcNAc = target: Gal3S(b1-4)GlcNAc
Outline: as §1

[27] = target: Gal3S(b1-4)[Fuc(a1-3)]Glc6S
Outline: as §1

[28] = target: Gal3S(b1-4)[Fuc(a1-3)]GlcNAc
Outline: as §1

[29] = target: Gal3S(b1-4)[Fuc(a1-3)]GlcNAc6S
Outline: as §1

Gal3S4S(b1-4)GlcNAc = target: Gal3S4S(b1-4)GlcNAc
Outline: as §1

Gal3S6S(b1-4)GlcNAc = target: Gal3S6S(b1-4)GlcNAc
Outline: as §1

Gal3S6S(b1-4)GlcNAc6S = target: Gal3S6S(b1-4)GlcNAc6S
Outline: as §1

Gal4S(b1-4)GlcNAc = target: Gal4S(b1-4)GlcNAc
Outline: as §1

Gal4S6S(b1-4)GlcNAc = target: Gal4S6S(b1-4)GlcNAc
Outline: as §1

Gal6P(b1-4)GlcNAc = target: Gal6P(b1-4)GlcNAc
Outline: as §1

Gal6S(b1-3)GlcNAc = target: Gal6S(b1-3)GlcNAc
Outline: as §1

Gal6S(b1-3)GlcNAc6S = target: Gal6S(b1-3)GlcNAc6S
Outline: as §1

Gal6S(b1-4)Glc = target: Gal6S(b1-4)Glc
Outline: as §1

B1: PV12658A-bvu-496-32-496 (Bacteroides vulgatus) (protein)
chain: DLDGAITTPAAVELALNGIYYSLPGNGFNVIFPTVSGSFKAGTMWRQEIVSAGNAVYYSERMLPTLSFSDATEWDADYAVIKNANFLETACNRMSDGEFSGNRRAEVLGEIAYLRALAYFNILVRYCEFWDMNSEYGVVMRNEAPSVSNALKARSSVADSYQYILDQLEIAIEKAPDWKKLSQASKEAAKALKARVLLYAGKYTEAVAAVNDAIDTNSPLPEANYGDVFDKFSTTKEILFARVFDQKDATNTSTRQQCYGNSPTKKQGYWGPTNEYVELVGDDPRADAIFSKVDSLMDSRSSAVAYNLKSVKKLLNDANDMPVIFSRVSELYLIKAEALYRSGASISEAYAPIRKLRERAGAEIILPANNEELETAIFNEWMLELSFENWHEWFAMIRFAGYTEKPDFTRLLALNKTLREALEKEYEKSEAQGDNYYQRIIDRRIDAIPSSEISSNLECKQNPGY
[1]
  glycan array binding signal (z-score): -0.347
[2]
  glycan array binding signal (z-score): 0.099
[3]
  glycan array binding signal (z-score): -0.184
[4]
  glycan array binding signal (z-score): 3.56
[5]
  glycan array binding signal (z-score): 0.003
[6]
  glycan array binding signal (z-score): 1.29
[7]
  glycan array binding signal (z-score): 5.64
[8]
  glycan array binding signal (z-score): 0.511
[9]
  glycan array binding signal (z-score): 0.761
[10]
  glycan array binding signal (z-score): 1.98
[11]
  glycan array binding signal (z-score): 2.19
[12]
  glycan array binding signal (z-score): 1.23
[13]
  glycan array binding signal (z-score): 0.943
[14]
  glycan array binding signal (z-score): 3.98
[15]
  glycan array binding signal (z-score): 0.866
[16]
  glycan array binding signal (z-score): 0.802
[17]
  glycan array binding signal (z-score): -0.316
[18]
  glycan array binding signal (z-score): -0.267
[19]
  glycan array binding signal (z-score): -0.264
[20]
  glycan array binding signal (z-score): 0.41
[21]
  glycan array binding signal (z-score): -0.107
[22]
  glycan array binding signal (z-score): 0.038
[23]
  glycan array binding signal (z-score): -0.393
[24]
  glycan array binding signal (z-score): -0.428
[25]
  glycan array binding signal (z-score): -0.158
Gal(b1-4)GlcNAc6P
  glycan array binding signal (z-score): -0.489
Gal(b1-6)Gal
  glycan array binding signal (z-score): -0.415
Gal3S(b1-3)GalNAc
  glycan array binding signal (z-score): -0.346
Gal3S(b1-3)GlcNAc
  glycan array binding signal (z-score): -0.286
[26]
  glycan array binding signal (z-score): -0.367
Gal3S(b1-4)Glc
  glycan array binding signal (z-score): 0.069
Gal3S(b1-4)Glc6S
  glycan array binding signal (z-score): -0.062
Gal3S(b1-4)GlcNAc
  glycan array binding signal (z-score): -0.25
[27]
  glycan array binding signal (z-score): 0.012
[28]
  glycan array binding signal (z-score): 0.028
[29]
  glycan array binding signal (z-score): -0.008
Gal3S4S(b1-4)GlcNAc
  glycan array binding signal (z-score): -0.505
Gal3S6S(b1-4)GlcNAc
  glycan array binding signal (z-score): -0.401
Gal3S6S(b1-4)GlcNAc6S
  glycan array binding signal (z-score): -0.016
Gal4S(b1-4)GlcNAc
  glycan array binding signal (z-score): -0.482
Gal4S6S(b1-4)GlcNAc
  glycan array binding signal (z-score): -0.068
Gal6P(b1-4)GlcNAc
  glycan array binding signal (z-score): 0.101
Gal6S(b1-3)GlcNAc
  glycan array binding signal (z-score): 0.76
Gal6S(b1-3)GlcNAc6S
  glycan array binding signal (z-score): -0.131
Gal6S(b1-4)Glc
  glycan array binding signal (z-score): 0.183
